Measurements from PubChem BioAssay (Tox21).
Inconclusive results, whose numbers are uncertain, are shown with a selection of clear calls. For some of these results: Potencies beside an inconclusive call are fits to weak or partial responses and may not hold up. Activity calls are given as the source filed them. Unless noted, calls come from the whole dose curve; as a rule, active = well fitted curve in the direction sought with a large enough effect in the repeat runs; inconclusive = weak or mixed curves; inactive = no such curve, though single readings can be large; an effect the other way counts as inactive or inconclusive.

Legend:
[1] = qHTS assay for small molecule agonists of the p53 signaling pathway (AID 651631; calls by dose curve; note: nearly all actives have a fitted effect of over 15% in size; note: potency is the fitted concentration of half-maximal effect); details: HCT-116 p53RE-bla reporter, beta-lactamase FRET ratio, 16 h; activation: at 73.3 µM (top of the series) unless noted
In short: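 HCT-116 cells carrying a beta-lactamase reporter under p53 response elements were dosed with compound for 16 h at 37 °C. LiveBLAzer B/G FRET substrate was then added for 2 h at room temperature, and fluorescence intensity was read to detect pathway agonism.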

[2] = molecular target: Glucocorticoid receptor (Homo sapiens) (UniProt P04150); assay: qHTS assay to identify small molecule agonists of the glucocorticoid receptor (GR) signaling pathway (AID 720691; active = well fitted activation curve with a large enough effect in the signal ratio in the repeat runs, not every such curve was filed as active; inconclusive = weak or mixed curves, or effect the other way; inactive = no such curve, though single readings can be large or run the other way; the % refers to the signal ratio; note: potency is the fitted concentration of half-maximal effect); details: GR-bla HeLa, beta-lactamase reporter ratio, 18 h; activation: at 62.4 µM (top of the series) unless noted
In short: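 Fluorescence intensity from LiveBLAzer B/G FRET substrate (2 h, room temperature) reports beta-lactamase expression driven by the glucocorticoid response element in GR-bla HeLa cells after 18 h compound exposure at 37 C.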

[3] = molecular target: Glucocorticoid receptor (Homo sapiens) (UniProt P04150); assay: qHTS assay to identify small molecule antagonists of the glucocorticoid receptor (GR) signaling pathway (AID 720692; active = well fitted inhibition curve with a large enough effect in the signal ratio in the repeat runs, not every such curve was filed as active; inconclusive = weak or mixed curves, or effect the other way; inactive = no such curve, though single readings can be large or run the other way; the % refers to the signal ratio; note: potency is the fitted concentration of half-maximal effect; for activity change, negative = inhibition: % is set by controls: 0 for no effect and ±100 for the full control effect); details: GR-bla HeLa, beta-lactamase FRET ratio, dexamethasone-stimulated, 18 h; activity change, negative = inhibition: at 58.5 µM (top of the series) unless noted
In short: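 HeLa GR-bla cells; cmpd + dex 5 nM final, 18 h 37 C; LiveBLAzer B/G FRET substrate 2 h RT; fluorescence intensity read. Antagonist mode, qHTS.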

[4] = qHTS assay to identify small molecule antagonists of the glucocorticoid receptor (GR) signaling pathway - cell viability counter screen (AID 720693); details: GR-bla HeLa viability, CellTiter-Glo luminescence, 18 h, with 5 nM dexamethasone present; viability change, negative = cytotoxic: at 58.5 µM (top of the series); note: potency is the fitted concentration of half-maximal effect; nearly all actives have a fitted effect of over 55% in size
[5] = qHTS assay for identifying genotoxic compounds that show differential cytotoxicity against isogenic chicken DT40 cell lines with known DNA damage response pathways - wild type cell line (AID 743012); details: DT40 wild type chicken cells viability, CellTiter-Glo, 40 h; activity change, negative = cytotoxicity: at 68.4 µM (top of the series) unless noted; note: nearly all actives have a fitted effect of over 60% in size; note: potency is the fitted concentration of half-maximal effect
In short: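 Wild type DT40, 300 cells/well, ~0.5 h settle at 37 C/5% CO2; compounds in DMSO added by pintool; 40 h at 37 C/5% CO2; CellTiter-Glo, 30 min RT; luminescence.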

[6] = tested on: thyroid hormone receptor (rat, GH3 cells); assay: qHTS assay to identify small molecule agonists of the thyroid receptor (TR) signaling pathway (AID 743066; calls by dose curve; note: potency is the fitted concentration of half-maximal effect); details: GH3.TRE-Luc cells, TR agonist luciferase, 24 h; activation: at 83.9 µM (top of the series) unless noted
[7] = molecular target: Estrogen receptor (Homo sapiens) (UniProt P03372); assay: qHTS assay to identify small molecule antagonists of the estrogen receptor alpha (ER-alpha) signaling pathway (AID 743069; active = well fitted curve in the direction sought with a large enough effect in the signal ratio in the repeat runs, not every such curve was filed as active; inconclusive = weak or mixed curves, or effect the other way; inactive = no such curve, though single readings can be large or run the other way; the % refers to the signal ratio; note: potency is the fitted concentration of half-maximal effect); details: HEK293 ER-alpha-UAS-bla, beta-lactamase ratio, antagonist mode; activity, negative = inhibition: at 69.4 µM (top of the series) unless noted
In short: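 Reporter cells (ER-alpha-bla, HEK293 background) are conditioned overnight in stripped-serum medium (2% charcoal-stripped FBS). Compound and 17beta-estradiol exposure runs 18 hr at 37C, 5% CO2.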

[8] = qHTS assay to identify small molecule antagonists of the estrogen receptor alpha (ER-alpha) signaling pathway - cell viability counter screen (AID 743074; calls by dose curve;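 note: HEK293 cells carrying ER-alpha-UAS-bla reporter stimulated with 17beta-estradiol; nearly all actives have a fitted effect of over 45% in size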; note: potency is the fitted concentration of half-maximal effect)
[9] = molecular target: Estrogen receptor (Homo sapiens) (UniProt P03372); assay: qHTS assay to identify small molecule agonists of the estrogen receptor alpha (ER-alpha) signaling pathway using the BG1 cell line (AID 743079); details: BG1Luc4E2 cells, ERE-luciferase agonist, 22 h; activation: at 70.3 µM (top of the series) unless noted; note: potency is the fitted concentration of half-maximal effect; nearly all actives have a fitted effect of over 20% in size
[10] = qHTS assay to identify small molecule antagonists of the estrogen receptor alpha (ER-alpha) signaling pathway using the BG1 cell line (AID 743080; calls by dose curve; note: nearly all actives have a fitted effect of over 25% in size; note: potency is the fitted concentration of half-maximal effect; for activity change, negative = inhibition: % is set by controls: 0 for no effect and ±100 for the full control effect); details: BG1Luc4E2 ERE-luciferase antagonist mode, luminescence; activity change, negative = inhibition: at 70.3 µM (top of the series) unless noted
In short: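 Antagonist mode: compounds in DMSO were pinned onto BG1-Luc-4E2 cells alongside 17beta-estradiol agonist, incubated 21.5 h, and ERE-driven luciferase measured with ONE-Glo. Cytotoxicity was multiplexed using CellTiter-Fluor fluorescence.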

[11] = qHTS assay to identify small molecule antagonists of the estrogen receptor alpha (ER-alpha) signaling pathway using the BG1 cell line - cell viability counter screen (AID 743081); details: BG1Luc4E2 viability, CellTiter-Fluor, 22 h; activity change, negative = cytotoxicity: at 70.3 µM (top of the series) unless noted;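 note: compound given together with 17beta-estradiol as the ER stimulus; nearly all actives have a fitted effect of over 45% in size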; note: potency is the fitted concentration of half-maximal effect; for activity change, negative = cytotoxicity: % is set by controls: 0 for no effect and ±100 for the full control effect
[12] = molecular target: Peroxisome proliferator-activated receptor gamma (Homo sapiens) (UniProt P37231); assay: qHTS assay to identify small molecule agonists of the peroxisome proliferator-activated receptor gamma (PPARg) signaling pathway (AID 743094; active = well fitted activation curve with a large enough effect in the signal ratio in the repeat runs, not every such curve was filed as active; inconclusive = weak or mixed curves, or effect the other way; inactive = no such curve, though single readings can be large or run the other way; the % refers to the signal ratio; note: % is set by controls: 0 for no effect and ±100 for the full control effect); details: HEK293H PPARg-UAS-bla, beta-lactamase FRET ratio, 17 h; activation: at 57 µM (top of the series) unless noted
In short: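 Beta-lactamase FRET fluorescence was the read-out after a 1 h room-temperature substrate step, following 17 h compound treatment at 37C of HEK293H cells expressing a UAS-driven bla reporter responsive to PPARg.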

[13] = qHTS assay for small molecule disruptors of the mitochondrial membrane potential (AID 720635); details: HepG2 mitochondrial membrane potential, Mito-MPS dye ratio; ratio activity, negative = MMP loss: at 83.2 µM (top of the series) unless noted; note: potency is the fitted concentration of half-maximal effect
In short: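 HepG2 cells exposed to compound 1 hr at 37C, then Mito-MPS dye 30 min. Ratio read of aggregate (540/590 nm) versus monomer (490/535 nm) fluorescence.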

[14] = qHTS assay to identify aromatase inhibitors - cell viability counter screen (AID 743084); details: MCF-7 aro ERE viability, CellTiter-Fluor, 24 h; activity change, negative = cytotoxicity: at 70.3 µM (top of the series) unless noted;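 note: cells stimulated with testosterone during compound exposure; potency is the fitted concentration of half-maximal effect; nearly all actives have a fitted effect of over 55% in size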
[15] = qHTS assay to identify small molecule antagonists of the thyroid receptor (TR) signaling pathway - cell viability counter screen (AID 743064); details: GH3.TRE-Luc viability, CellTiter-Fluor, 24 h; activity change, negative = cytotoxic: at 70.3 µM (top of the series) unless noted; note: nearly all actives have a fitted effect of over 50% in size; note: potency is the fitted concentration of half-maximal effect
In short: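 GH3.TRE-Luc rat pituitary cells dosed after 4 hr plating, co-stimulated with T3 at 1 nM final, incubated 23.5 h at 37 C. Viability measured in the same wells by CellTiter-Fluor fluorescence after 30 min further at 37 C.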

[16] = qHTS assay for identifying genotoxic compounds that show differential cytotoxicity against isogenic chicken DT40 cell lines with known DNA damage response pathways - Rev3 mutant cell line (AID 743014); details: chicken DT40 Rev3-/- viability, CellTiter-Glo, 40 h; activity, negative = cytotoxicity: at 68.4 µM (top of the series) unless noted; note: % is set by controls: 0 for no effect and ±100 for the full control effect; nearly all actives have a fitted effect of over 55% in size
[17] = qHTS assay to identify small molecule antagonists of the androgen receptor (AR) signaling pathway using the MDA cell line - cell viability counter screen (AID 743041; note: nearly all actives have a fitted effect of over 45% in size; note: potency is the fitted concentration of half-maximal effect); details: MDA-kb2 viability, CellTiter-Fluor, 16 h, cells co-treated with R1881 androgen agonist; viability change, negative = cytotoxic: at 70.3 µM (top of the series)
In short: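 Same-well cytotoxicity was assessed by CellTiter-Fluor in MDA-kb2 AR-luc cells after 16 h of compound treatment under R1881 agonism.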

[18] = qHTS assay to identify small molecule antagonists of the androgen receptor (AR) signaling pathway - cell viability counter screen (AID 743033; note: potency is the fitted concentration of half-maximal effect; nearly all actives have a fitted effect of over 45% in size); details: AR-bla HEK293 viability, CellTiter-Glo luminescence, 16 h; activity change, negative = cytotoxicity: at 58.5 µM (top of the series) unless noted
[19] = qHTS assay for identifying genotoxic compounds that show differential cytotoxicity against isogenic chicken DT40 cell lines with known DNA damage response pathways - Rad54/Ku70 mutant cell line (AID 743015); details: DT40 Rad54/Ku70 mutant viability, CellTiter-Glo, 40 h; activity change, negative = cytotoxicity: at 66.8 µM (top of the series) unless noted; note: % is set by controls: 0 for no effect and ±100 for the full control effect; nearly all actives have a fitted effect of over 60% in size
Tags give direction and shape of the fitted curve or compound fluorescence and quenching.

Sequence of UniProt P04150 (P04150 whole entry, looked up): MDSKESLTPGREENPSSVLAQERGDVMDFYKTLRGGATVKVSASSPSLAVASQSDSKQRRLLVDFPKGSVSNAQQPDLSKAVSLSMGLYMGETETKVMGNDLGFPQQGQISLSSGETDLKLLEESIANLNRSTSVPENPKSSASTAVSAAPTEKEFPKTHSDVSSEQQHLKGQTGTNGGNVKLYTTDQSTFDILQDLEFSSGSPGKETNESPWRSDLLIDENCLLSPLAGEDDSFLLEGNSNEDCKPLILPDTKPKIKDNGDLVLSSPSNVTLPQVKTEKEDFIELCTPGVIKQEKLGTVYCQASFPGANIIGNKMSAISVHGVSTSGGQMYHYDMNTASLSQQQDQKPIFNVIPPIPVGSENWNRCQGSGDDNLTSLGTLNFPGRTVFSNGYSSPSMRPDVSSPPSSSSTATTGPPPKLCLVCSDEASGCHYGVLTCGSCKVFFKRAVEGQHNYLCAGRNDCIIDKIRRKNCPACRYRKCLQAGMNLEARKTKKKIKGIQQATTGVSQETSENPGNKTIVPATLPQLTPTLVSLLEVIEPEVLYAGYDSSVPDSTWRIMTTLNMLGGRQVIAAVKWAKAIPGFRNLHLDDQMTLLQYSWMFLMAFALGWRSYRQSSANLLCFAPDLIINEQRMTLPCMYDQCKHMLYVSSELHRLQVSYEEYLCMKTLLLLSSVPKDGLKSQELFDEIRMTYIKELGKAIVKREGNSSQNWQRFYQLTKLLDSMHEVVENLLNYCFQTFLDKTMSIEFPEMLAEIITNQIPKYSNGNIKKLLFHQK
Sequence of UniProt P37231 (P37231 whole entry, looked up): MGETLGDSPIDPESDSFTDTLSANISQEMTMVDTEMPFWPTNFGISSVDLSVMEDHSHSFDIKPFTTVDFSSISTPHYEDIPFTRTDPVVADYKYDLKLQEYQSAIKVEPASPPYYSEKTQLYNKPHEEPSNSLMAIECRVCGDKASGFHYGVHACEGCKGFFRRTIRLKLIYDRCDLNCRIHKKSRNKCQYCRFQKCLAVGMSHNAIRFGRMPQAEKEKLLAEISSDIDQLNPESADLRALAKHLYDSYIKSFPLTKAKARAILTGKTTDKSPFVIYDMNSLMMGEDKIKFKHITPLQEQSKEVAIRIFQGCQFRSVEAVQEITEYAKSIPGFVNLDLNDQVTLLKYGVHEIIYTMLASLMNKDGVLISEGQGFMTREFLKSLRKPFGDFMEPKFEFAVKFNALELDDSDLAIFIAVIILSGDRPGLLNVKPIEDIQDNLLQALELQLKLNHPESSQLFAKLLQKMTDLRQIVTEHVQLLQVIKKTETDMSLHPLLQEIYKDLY
Sequence of UniProt P03372 (P03372 whole entry, looked up): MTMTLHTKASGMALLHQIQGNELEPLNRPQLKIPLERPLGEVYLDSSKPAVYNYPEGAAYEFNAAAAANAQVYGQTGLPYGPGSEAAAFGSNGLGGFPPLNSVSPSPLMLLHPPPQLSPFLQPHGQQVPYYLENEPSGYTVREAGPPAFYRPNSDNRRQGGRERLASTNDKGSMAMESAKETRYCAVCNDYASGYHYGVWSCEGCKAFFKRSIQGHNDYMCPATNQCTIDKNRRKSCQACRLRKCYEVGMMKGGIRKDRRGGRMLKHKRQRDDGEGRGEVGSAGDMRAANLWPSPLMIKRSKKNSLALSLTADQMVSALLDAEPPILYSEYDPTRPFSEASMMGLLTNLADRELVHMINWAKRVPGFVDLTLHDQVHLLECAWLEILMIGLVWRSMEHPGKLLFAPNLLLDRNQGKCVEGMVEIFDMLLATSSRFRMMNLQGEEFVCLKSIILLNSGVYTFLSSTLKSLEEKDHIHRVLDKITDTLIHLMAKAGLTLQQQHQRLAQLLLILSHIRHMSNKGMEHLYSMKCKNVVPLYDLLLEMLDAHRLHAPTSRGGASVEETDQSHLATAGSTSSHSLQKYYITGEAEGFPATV

CO[C@H]1C[C@H](O[C@H]2[C@H](C)O[C@@H](O[C@@H]3/C(C)=C/C[C@@H]4C[C@@H](C[C@]5(C=C[C@H](C)[C@@H](C6CCCCC6)O5)O4)OC(=O)[C@@H]4C=C(C)[C@@H](O)[C@H]5OC/C(=C\C=C\[C@@H]3C)[C@]54O)C[C@@H]2OC)O[C@@H](C)[C@@H]1O
active: Potency [4] 7.56 µM | Potency [5] 5.31 µM | Potency [8] 16.9 µM | Potency [11] 21.1 µM
inconclusive: Potency [1] 5.96 µM [cytotoxic, full curve] | Potency [2] 15.1 µM [falling, partial curve] | Potency [3] 16.9 µM [cytotoxic, partial curve] | Potency [6] 2.66 µM [inhibitor] | Potency [7] 8.49 µM [full curve] | Potency [9] 21.1 µM [inhibitor, partial curve] | Potency [10] 33.5 µM [falling, single point] | activation [12] -19.9%

Nc1ncnc2c1ncn2[C@@H]1O[C@H](COP(=O)(O)OP(=O)(O)OP(=O)(O)O)[C@@H](O)[C@H]1O
inactive: Potency [11]
inconclusive: Potency [13] 2.98 µM [activator, full curve] | activity change, negative = inhibition [3] 27.2% | Potency [4] 4.77 µM [rising, partial curve] | Potency [7] 21.3 µM [activator, partial curve] | activity change, negative = inhibition [10] 1.18% | Potency [14] 9.44 µM [rising, partial curve]
active: Potency [1] 26.6 µM | Potency [8] 6.01 µM

O=C(Cn1c(=O)sc2ccc(Cl)cc21)N1CCN(CCO)CC1
inconclusive: Potency [1] 0.668 µM [activator, single point]

CO[C@H]1C[C@H](O[C@@H]2/C(C)=C/C[C@@H]3C[C@@H](C[C@]4(CC[C@H](C)[C@@H](C5CCCCC5)O4)O3)OC(=O)[C@@H]3C=C(C)/C(=N/O)[C@H]4OC/C(=C\C=C\[C@@H]2C)[C@]43O)O[C@@H](C)[C@@H]1O
inconclusive: Potency [1] 33.5 µM [single point] | Potency [13] 15 µM [inhibitor, partial curve] | Potency [15] 16.8 µM [cytotoxic, partial curve, poor fit] | activation [6] -9% [phenotype inactive]

CC(CCc1ccc(O)cc1)NCC(O)c1ccc(O)cc1 (centres undefined)
inconclusive: Potency [1] 11.9 µM [fluorescent, partial curve] | Potency [15] 23.7 µM [cytotoxic, partial curve, poor fit] | Potency [14] 9.44 µM [cytotoxic, partial curve]
inactive: Potency [5] | Potency [16]

C=CC[C@@H]1/C=C(\C)C[C@H](C)C[C@H](OC)[C@H]2O[C@@](O)(C(=O)C(=O)N3CCCC[C@H]3C(=O)O[C@H](/C(C)=C/[C@@H]3CC[C@@H](O)[C@H](OC)C3)[C@H](C)[C@@H](O)CC1=O)[C@H](C)C[C@@H]2OC
inconclusive: Potency [1] 37.6 µM [falling, single point] | Potency [13] 23.7 µM [inhibitor, partial curve, poor fit] | Potency [3] 10.7 µM [inhibitor, partial curve] | Potency [4] 23.9 µM [cytotoxic, partial curve, poor fit] | Potency [17] 3 nM [cytotoxic, full curve, poor fit] | activity change, negative = cytotoxic [15] -33.1% [cytotoxic] | Potency [11] 2.66 µM [cytotoxic, full curve] | activation [12] -20.2%

CCCCC(C)(O)C/C=C/[C@H]1[C@H](O)CC(=O)[C@@H]1CCCCCCC(=O)OC (some centres undefined)
inactive: Potency [17] | Potency [8]
inconclusive: Potency [1] 29.8 µM [activator] | ratio activity, negative = MMP loss [13] 3.79% | activity change, negative = inhibition [3] -4.33% | Potency [5] 2.37 µM [cytotoxic, full curve] | Potency [15] 6.68 µM [cytotoxic, full curve, poor fit]

NC(Cc1ccccc1)C(=O)O (centres undefined)
inconclusive: Potency [18] 7.56 µM [rising, partial curve] | Potency [9] 33.5 µM [activator, partial curve, poor fit]
inactive: Potency [1] | Potency [13] | Potency [5] | Potency [10]

CCCCC(O)c1ccccc1 (centres undefined)
inconclusive: Potency [1] 33.5 µM [falling, single point]
inactive: Potency [13] | Potency [16] | Potency [15] | Potency [7]

Oc1cc(O)cc(O)c1
inactive: Potency [1] | Potency [5] | Potency [19] | Potency [12]
inconclusive: ratio activity, negative = MMP loss [13] 14.7% | activity change, negative = inhibition [3] 0.336% | activity change, negative = cytotoxic [15] 6.49%
